# Source: PubChem BioAssay AID488969 (Vanderbilt High Throughput Screening Facility, 2010)
# The full ranking holds about 110,000 compounds; the median of “z-score” is about -0.1, and the highest 2% start at about 2. The list shows a part of the results. The source made the active and inactive calls.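 The calls were made as follows: active = z-score in the third read window above 3 or below -3; inactive = the rest.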
# Biological target: Metabotropic glutamate receptor 8 (Rattus norvegicus) (UniProt P70579)
# Assay: mGluR8 Gi/Go-coupled signaling modulation – cell-based, rat, thallium flux, HTS, primary screen (AID 488969)
# Conditions: HEK293 rat mGluR8, GIRK (G protein-gated inwardly rectifying potassium channel) thallium flux, FluoZin2; at 10 µM; stronger effect = higher value; submaximal glutamate (EC20) added with thallium
# Chain of UniProt P70579 (P70579 whole entry, looked up): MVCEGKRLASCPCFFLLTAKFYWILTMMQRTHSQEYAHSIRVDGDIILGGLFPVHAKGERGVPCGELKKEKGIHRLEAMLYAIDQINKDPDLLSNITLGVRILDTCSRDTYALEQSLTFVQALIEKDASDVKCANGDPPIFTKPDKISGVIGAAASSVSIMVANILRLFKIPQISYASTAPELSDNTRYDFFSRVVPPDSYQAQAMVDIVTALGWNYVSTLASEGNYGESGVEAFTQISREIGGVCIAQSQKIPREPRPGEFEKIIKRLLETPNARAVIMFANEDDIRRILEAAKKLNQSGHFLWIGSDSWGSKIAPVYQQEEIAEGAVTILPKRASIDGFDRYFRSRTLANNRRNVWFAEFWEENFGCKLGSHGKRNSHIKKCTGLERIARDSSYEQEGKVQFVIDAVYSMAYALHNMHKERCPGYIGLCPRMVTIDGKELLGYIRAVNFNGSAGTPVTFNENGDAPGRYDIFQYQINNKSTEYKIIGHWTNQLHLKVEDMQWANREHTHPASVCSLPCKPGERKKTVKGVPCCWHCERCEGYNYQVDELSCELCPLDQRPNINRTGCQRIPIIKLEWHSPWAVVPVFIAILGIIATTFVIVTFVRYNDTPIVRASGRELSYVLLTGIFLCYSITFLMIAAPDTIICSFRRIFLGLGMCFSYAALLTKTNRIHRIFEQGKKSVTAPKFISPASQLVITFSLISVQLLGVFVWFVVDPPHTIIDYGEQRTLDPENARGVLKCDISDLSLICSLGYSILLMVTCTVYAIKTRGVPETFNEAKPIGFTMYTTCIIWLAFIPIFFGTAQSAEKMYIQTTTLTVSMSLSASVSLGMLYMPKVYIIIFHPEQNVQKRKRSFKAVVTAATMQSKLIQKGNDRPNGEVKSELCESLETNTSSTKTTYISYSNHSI
row,SMILES,z-score
1,Cc1ccc2nc(-c3ccccc3)nc(SC(C)C(=O)NCc3cccs3)c2c1 (stereo unspecified),-0.0563
2,Cc1ccc(S(=O)(=O)NC(C)C(c2cccs2)N2CCN(C)CC2)cc1 (stereo unspecified),1.04
3,O=C(Nc1cccc(F)c1)/C(=C\c1ccco1)NC(=O)c1cccs1,0.213
4,CCOc1ccc(C=NC23CN4CN(CN(C4)C2)C3)cc1,-0.226
5,CCOc1cc2[nH]c(=O)n(Cc3ccccc3)c(=O)c2cc1OCC,-0.0356
6,O=C(NC1CCCCC1)C1CC(=O)N(CCc2ccccc2)C1 (stereo unspecified),-0.403
7,CCOC(=O)c1c(-c2cccc([N+](=O)[O-])c2)csc1NC(=O)C1CC1,0.00633
8,O=c1[nH]c2ccccc2c(=O)n1CCCO,0.573
9,CC(C)(CNC(=O)c1ccc([N+](=O)[O-])c(Cl)c1)CNC(=O)c1ccc([N+](=O)[O-])c(Cl)c1,-0.409
10,COc1ccc(C2Nc3ccccc3C(=O)N2Cc2ccccc2)cc1Cn1nnc2ccccc21 (stereo unspecified),-0.344
11,O=c1cc(-c2ccc(Cl)c(Cl)c2)[nH][nH]1,-0.0977
12,CN(C)S(=O)(=O)c1ccc(C(=O)Nc2nnc(Cc3ccccc3)s2)cc1,-0.271
13,O=C(O)CN1C(=O)C2(OCCCO2)c2ccccc21,0.0511
14,CCCCOc1ccc(C(=O)N/C(=C\c2cccc([N+](=O)[O-])c2)C(=O)OC(C)C)cc1,0.536
15,CC(C)CNc1oc(-c2ccc(F)cc2)nc1C#N,0.561
16,O=c1c2ccccc2nc(SCc2ccccc2F)n1C1CCCC1,0.17
17,Cc1cc(=O)c2ccccc2s1,-0.104
18,O=C(O)CCCCCNc1ccc2nsnc2c1[N+](=O)[O-],0.14
19,CCn1cc(Br)c(C(=O)Nc2ccc(C(=O)OC(C)C)cc2)n1,-0.084
20,Cn1c(=O)c([N+](=O)[O-])c(NCC(O)c2ccccc2)c2ccccc21 (stereo unspecified),0.0997
21,Cc1nc(NC(C)C(=O)O)c2nc(C)oc2n1 (stereo unspecified),-0.0905
22,Cc1nn(C(=O)c2cccs2)c(C)c1CN1C(=O)c2ccccc2C1=O,0.128
23,CCCCC(=O)Nc1nc(C)c(-c2csc(Nc3ccc(Cl)cc3)n2)s1,0.158
24,CC(C)c1nc(SCC(=O)NCc2ccccc2)n[nH]1,-0.0957

row,SMILES,z-score
1,CCOC(=O)N1CCC(Nc2c(NCCN3CCN(c4cccc(Cl)c4)CC3)c(=O)c2=O)CC1,0.124
2,COc1cc(C(=O)Nc2sc3c(c2C#N)CCN(C(C)=O)C3)cc(OC)c1OC,-0.727
3,O=C(c1ccco1)N1CCN(C(c2ccccc2Cl)c2nnnn2Cc2ccco2)CC1 (stereo unspecified),-0.138
4,CCC1CCCCN1C(=O)CCCOc1ccccc1 (stereo unspecified),-0.368
5,Cc1ccccc1NC(=O)N(CCc1nc2ccccc2[nH]1)Cc1ccccc1,-0.292
6,Cc1ccc(S(=O)(=O)N(CC(O)CN2CCCCC2)c2ccccc2)cc1 (stereo unspecified),-0.627
7,O=C(Nc1ccon1)c1ccccc1F,0.0509
8,Cc1cccc(NS(=O)(=O)c2cc(C(=O)N3CCCC3)ccc2Cl)c1,0.379
9,O=C(CSc1ccccc1)NCCSCc1ccccc1,-0.635
10,N/C(=N\OC(=O)c1cccc2ccccc12)c1ccc(Br)cc1,0.158
11,Cc1ccc(-c2c3c(nc4sc(C(N)=O)c(N)c24)CCC3)cc1,0.883
12,COC(=O)COc1ccc(=O)n(-c2ccccc2)n1,-0.129
13,Cc1ccc(C)c(N2CCN(C(=O)c3cc4ccccn4n3)CC2)c1,-1.77
14,COc1ccc(C(=O)CSc2ncn[nH]2)cc1OC,0.0627
15,COc1cc(/C=N/NC(=O)C(C)Nc2n[nH]c(=O)[nH]c2=O)cc(OC)c1O (stereo unspecified),-0.347
16,O=C(Nc1cccc(S(=O)(=O)N2CCCCC2)c1)c1ccccc1NS(=O)(=O)c1ccc(F)cc1,0.0356
17,CCOC(=O)CCCNS(=O)(=O)c1c(C)ccc2nsnc12,1.23
18,Cc1cc(C)c(NC(=O)COC(=O)c2cccc3c2C(=O)c2ccccc2C3=O)c(C)c1,-0.5
19,Cc1cc(C)nc(SCC(=O)Nc2ncc(C(F)(F)F)cc2Cl)n1,-0.327
20,O=C(c1ccccc1)N1CC(COc2ccccc2)OC(c2cccnc2)O1 (stereo unspecified),-0.0143
21,COC(=O)c1ccccc1NC(=O)Cc1ccccc1OC,-0.94
22,CN(C)C(=O)CCc1nc2sc3c(c2c(=O)[nH]1)CCCC3,-0.215
23,CC1CCCN(C(=O)COC(=O)c2n[nH]c3ccccc23)C1 (stereo unspecified),-2.57
24,COCCCn1c(C)nnc1SCC(=O)NCc1ccco1,-0.305

row,SMILES,z-score
1,CC1CN(CCCCOc2ccc3ccccc3c2)CC(C)O1 (stereo unspecified),0.362
2,CSc1cccc(NS(=O)(=O)c2cccs2)c1,0.381
3,Cc1ccc(CSC2=Nc3ccccc3C3=NC(CCC(=O)NCc4ccco4)C(=O)N23)cc1 (stereo unspecified),-0.342
4,CCN(c1cccc(C)c1)S(=O)(=O)c1ccc2c(c1)CCN2C(C)=O,0.111
5,Cc1cc(C(=O)CSc2nnc(N)s2)c(C)n1Cc1cccs1,-0.225
6,CCC(C)Nc1nc(OC)nc(N(C)C#N)n1 (stereo unspecified),0.227
7,S=c1[nH]nc(-c2ccncc2)n1Cc1ccccc1,1.42
8,CCOc1ccc(N=C(NC#N)SCC)cc1,-0.0898
9,CCn1c(Cc2cccs2)nnc1SCC(=O)c1ccc(C)cc1,-0.584
10,Cc1cccc(CSC2=NCCN2C(=O)c2ccc(Br)o2)c1,-1.03
11,O=C(CSc1nnc(CNc2ccc(F)cc2)o1)N1c2ccccc2Sc2ccccc21,0.359
12,O=C(O)C1CC(=O)N(c2ccc(OCc3ccccc3)cc2)C1 (stereo unspecified),-0.183
13,Cc1cccc(C)c1OCCCCCNCCO,0.445
14,N/C(=N\OC(=O)C(c1ccccc1)c1ccccc1)c1cccnc1,-0.28
15,CCOC(=O)C1(C)/C(=N/Nc2cccc(Cl)c2)C(=O)C(=O)N1c1ccccc1 (stereo unspecified),-0.387
16,O=C(CSc1nnc(-c2cnccn2)n1Cc1ccco1)Nc1ccc(Br)cc1,-0.611
17,C=CCn1c(SCC(=O)c2[nH]c(C)c(C(=O)OCC)c2C)nc2scc(-c3ccc(OC)c(OC)c3)c2c1=O,-0.123
18,Cc1cccc(C(C)C)c1NC(=O)COC(=O)Cc1ccsc1,0.0528
19,Cc1ccc(C(=O)c2oc3ccccc3c2N)cc1,0.974
20,COc1ccc(C(=O)Nc2ccc(C(=O)OCC(=O)c3ccccc3)cc2)cc1,0.273
21,Cc1ccc(S(=O)(=O)ON=C2CCN(S(=O)(=O)c3ccccc3)CC2)cc1,-0.282
22,Cc1cc(NC(=O)CCC(=O)N(CCC(C)C)CC(=O)NCC2CCCO2)no1 (stereo unspecified),-0.157
23,Cc1cc(NC(=O)CSc2nc(C3CC3)nc3sc(C)c(C)c23)no1,active: 12.4
